In PubChem BioAssay AID1346428 (National Center for Advancing Translational Sciences (NCATS), 2018):
About 1,200 (2.5%) of roughly 48,000 compounds were called active. Not shown: some 2% with an inconclusive outcome.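 Rule for the calls: active = activation of at least 60% and not above a set upper limit (about 1 call in 100 departs from these limits); inconclusive = activation of 40% to 60%, or above that upper limit; inactive = activation under 40%.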 This is one part of the list.

target: Probable G-protein coupled receptor 32 (Homo sapiens) (UniProt O75388); test: qHTS for Agonists of Human Resolvin D1 Receptor DRV1; conditions: CHO-K1 GPR32 beta-arrestin PathHunter luminescence, 90 min; at 76.9 µM; active compounds read high; zero percent set by DMSO-only wells; note: 0% is about no effect
Summary of the method: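 CHO-K1 cells stably expressing ProLink-tagged GPR32 and Enzyme Activator-tagged beta-arrestin were seeded at 2,500 cells/well overnight, exposed to compounds for 90 min at 37 °C, then read by beta-Gal complementation chemiluminescence after 1 h detection reagent.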

Sequence of UniProt O75388 (O75388 whole entry, looked up): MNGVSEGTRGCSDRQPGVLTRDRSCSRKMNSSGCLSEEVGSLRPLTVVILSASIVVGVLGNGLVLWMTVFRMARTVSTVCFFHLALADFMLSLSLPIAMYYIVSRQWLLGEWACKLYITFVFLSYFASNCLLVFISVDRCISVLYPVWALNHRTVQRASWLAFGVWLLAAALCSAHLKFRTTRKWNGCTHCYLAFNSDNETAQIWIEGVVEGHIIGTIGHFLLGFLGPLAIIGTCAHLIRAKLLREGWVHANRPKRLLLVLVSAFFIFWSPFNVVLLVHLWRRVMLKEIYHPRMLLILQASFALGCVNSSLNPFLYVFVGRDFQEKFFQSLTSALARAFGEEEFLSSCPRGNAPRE

Structure (SMILES) | activation
CCN(c1ccc(C)cc1C)S(=O)(=O)c1nnc(NC(=O)c2ccc(F)cc2)s1 | inactive: 8.52%
COc1cccc(-c2cc(C(=O)Nc3ccc(OC)cc3OC)no2)c1 | inactive: 9.64%
Cc1ccc2oc(=O)c(-c3nc(-c4cccs4)no3)cc2c1 | inactive: -8.88%
COC(=O)c1ccccc1NC(=O)Cc1nc(-c2ccc(OC)cc2)no1 | inactive: -6.02%
COc1ccc(-n2cnc3cc(C(=O)NCCC4=CCCCC4)ccc32)cc1 | inactive: 8.56%
Cc1nn(CCC(=O)Nc2cccc(C#N)c2)c(C)c1S(=O)(=O)N1CCC(C)CC1 | inactive: -0.851%
Cc1ccc(NC(=O)C2CCCN2S(=O)(=O)c2ccc3c(c2)n(C)c(=O)c(=O)n3C)cc1 (stereo not given) | inactive: -9.16%
CCOCCCNC(=O)CCC(=O)NNc1nc2ccccc2c2nc(C)nn12 | inactive: -6.99%
Cc1nc2nc(SCC(=O)NCCc3ccc(Cl)cc3)nn2c(C)c1Cc1c(F)cccc1Cl | inactive: -10.8%
O=C(Nc1cccc(C(=O)OCc2cc(=O)n3ccsc3n2)c1)c1ccc(F)cc1 | inactive: 9.53%
COc1ccc(OC)c(NC(=O)CN(c2ccccc2OC)S(=O)(=O)c2ccc(C)cc2)c1 | inactive: 33.2%
Cc1csc2nc(COC(=O)c3ccc(NC(=O)c4ccccc4Br)cc3)cc(=O)n12 | inactive: -4.74%
Cc1nn(CC(=O)NCc2ccco2)c(=O)c2nn(-c3ccccc3)c(C)c12 | inactive: 5.54%
CC(=O)N1CCc2cc(CNS(=O)(=O)c3ccccc3C(F)(F)F)ccc21 | inactive: -4.67%
CC(=O)Nc1ccc(NC(=O)c2c(-c3ccccc3)noc2C)cc1 | inactive: -0.0194%
O=C(O)c1ccc(CSc2nc3cccnc3n2Cc2cccc(F)c2)cc1 | inactive: -6.86%
Cc1cc(C)cc(NC(=O)Cn2c(C)cc(C)c(C#N)c2=O)c1 | inactive: 1.67%
O=C(CSc1nc2ccccc2n1Cc1cccc(C(F)(F)F)c1)NCc1ccccc1 | inactive: -17.4%
CCOc1cccc(C2Oc3nc(SC)nnc3-c3ccccc3N2C(C)=O)c1OC (stereo not given) | inactive: -2.81%
COC(=O)CC1Oc2ccc(Cl)cc2-n2cc(-c3ccc(C)cc3)nc21 (stereo not given) | inactive: -1.15%
Nc1ncc(S(=O)(=O)N2CCN(c3ccccc3)CC2)cn1 | inactive: -7.93%
COc1ccc(Cl)cc1NC(=O)c1oc2ccc(S(=O)(=O)N3CCCCC3)cc2c1C | inactive: -7.13%

Structure (SMILES) | activation
COc1ccc(N2CCN(C(=O)c3ccc(CS(=O)c4cccc(C)c4)o3)CC2)cc1 (stereo not given) | inactive: -16%
COc1cc(NC(=O)CSc2ccc(-c3sc(C)nc3C)nn2)cc(OC)c1 | inactive: -0.905%
Cc1ccc(S(=O)(=O)C(CNC(=O)C(=O)NCCc2ccc(F)cc2)c2cccs2)cc1 (stereo not given) | inactive: 15.9%
O=C(CSc1nc2c([nH]c3ccccc32)c(=O)n1-c1ccc(F)cc1)Nc1ccc2c(c1)OCO2 | inactive: -5.18%
Cc1ccc(-c2onc(C)c2C)cc1S(=O)(=O)N1CCc2ccccc21 | inactive: -16.4%
Cc1nc(-c2ccc(Cl)cc2)sc1CCNC(=O)C(=O)Nc1ccccc1C#N | inactive: 47%
Cc1cccc(CCNC(=O)CCc2c(C)nc3c(-c4ccc(F)cc4)c(C)nn3c2C)c1 | inactive: -0.0802%
CN1CCN(c2ccc(-c3nc(-c4ccccc4)no3)cc2[N+](=O)[O-])CC1 | active: 83.1%
COC(=O)c1ccc(NC(=O)C(c2ccccc2)N2Cc3ccccc3C2=O)cc1 (stereo not given) | inactive: -20.4%
COc1ccc(N2CCN(C(=O)c3cc4c(s3)-c3c(C)cccc3OC4)CC2)cc1 | inactive: -5.89%
Cc1cc(C)cc(NC(=O)C2CCCN(c3nnc(-n4c(C)ccc4C)s3)C2)c1 (stereo not given) | inactive: 0.997%
COCCn1c(SCC(=O)Nc2ccc(Br)cc2)nc2c([nH]c3ccccc32)c1=O | inactive: 15.4%
CCCCN(C(=O)Nc1ccc(OCC)cc1)C1CCN(C(C)=O)CC1 | inactive: -15.7%
CCCc1ccc(OC(=O)c2sc3ncn(Cc4cccc(F)c4)c(=O)c3c2C)cc1 | inactive: -8.38%
COc1ccc(NC(=O)Cn2c(SCc3c(F)cccc3Cl)nc3ccncc32)cc1OC | inactive: 2.49%
COC(=O)/C=C(/C)N | inactive: 4.21%
CCN(CC)c1ccc(NC(=O)C2CCCN(S(=O)(=O)c3ccc4c(c3)oc(=O)n4C)C2)c(C)c1 (stereo not given) | inactive: 6.61%
CCOC(=O)c1c(S(=O)(=O)N2CCN(c3cc(Cl)ccc3C)CC2)c(C)n(C)c1C | inactive: -2.62%
Cc1ccc(NC(=O)C2CCCN(S(=O)(=O)c3ccc(C)cc3)C2)cc1 (stereo not given) | inactive: -11.9%
CCC(Sc1nc2n[nH]c(C)c2c(=N)n1-c1ccc(Br)cc1)C(=O)N(CC)CC (stereo not given) | inactive: -9.24%
COc1ccccc1CSc1nc2n(n1)C(c1ccccc1)C(C(=O)Nc1ccc(C)cc1)=C(C)N2 (stereo not given) | inactive: -3.94%
COc1cc(NS(=O)(=O)c2ccc3c(c2)OCC(C(=O)N2CCCC2)O3)cc(OC)c1 (stereo not given) | inactive: 19.5%

Structure (SMILES) | activation
COc1ccccc1-c1ncnn1-c1sc2c(c1C#N)CCCCC2 | inactive: 40.9%
COc1ccc(NC(=O)Cn2ncc3c4ccccc4n(Cc4ccccc4)c3c2=O)cc1OC | inactive: -2.58%
NC1(C(=O)O)CCCCC1 | inactive: 8.46%
Cc1ccc(NC(=O)Cn2nc(-c3ccc(Cl)cc3)c3ccccc3c2=O)cc1 | inactive: -5.95%
CCCC(=O)OCc1cnc(C)c2oc(=O)c(C(=O)Nc3ccc(F)cc3C)cc12 | inactive: -11.9%
Cc1cccc(CNC(=O)C2CCN(S(=O)(=O)c3cccc4nonc34)CC2)c1 | inactive: 37.4%
Cc1ccc(C)c(NC(=O)C2CCCN2S(=O)(=O)c2ccc3c(c2)CCCC(=O)N3)c1 (stereo not given) | inactive: 3.24%
CCC1=Nc2cc(C(=O)N3CCC(C)CC3)ccc2Sc2ccc(C)cc21 | inactive: -26.3%
COc1ccc(-c2noc(CNC(=O)c3ccc(OC)cc3OC)n2)cc1 | inactive: -5.4%
CCOc1ccc(CCNC(=O)C2CC(=O)N(CCc3ccc(OC)c(OC)c3)C2)cc1OCC (stereo not given) | inactive: -5.82%
Cc1ccc2nc(N3CCN(c4ccc(F)cc4)CC3)c3nnnn3c2c1 | inactive: 4.39%
COc1cccc(-c2noc(COc3cccc(C)c3C)n2)c1 | inactive: -12.4%
CCCCN(CC)CCNC(=O)c1nn(-c2ccc(OC)cc2)c(=O)c2c1c1ccccc1n2C | inactive: -12.1%
N#C/C(=C\c1ccccc1)c1nc(-c2cc3c(ccc4ccccc43)oc2=O)cs1 | inactive: 1.28%
CCOC(=O)c1c(NC(=O)COc2ccc(OC)cc2)sc(C(=O)N(CC)CC)c1C | inactive: -23.6%
CCOC(=O)c1cccc(NC(=O)Cn2cnc3nc4c(cc3c2=O)CCCC4)c1 | inactive: -5.72%
CCN(CC)CCCNC(=O)c1ccc2c(c1)NC(=O)C(CS(=O)(=O)Cc1ccc(F)cc1Cl)N2 (stereo not given) | inactive: 0.542%
COCCNC(=O)c1sc2nc3n(c(=O)c2c1C)CCC3 | inactive: -3.52%
COc1ccc(-c2ccc(N)[n+](CCCC(=O)O)n2)cc1 | inactive: -8.7%
CCc1ccc(NS(=O)(=O)c2ccc3[nH]cc(C(=O)NCCc4ccccc4)c(=O)c3c2)cc1 | inactive: -7.52%
CCNC(=O)NCCCOc1cccc(CN2CCCCC2)c1 | inactive: -2.65%
COc1ccc(N2CC(c3nc(-c4ccccc4C)no3)CC2=O)cc1Cl (stereo not given) | inactive: 45.9%

Structure (SMILES) | activation
CCCCC(=O)Nc1cc(-c2cn3cccnc3n2)ccc1C | inactive: -13.6%
CCOc1ccc(-c2c(C)nn3c(C)c(C(=O)NC(C)c4ccccc4)cnc23)cc1OCC (stereo not given) | inactive: -2.77%
CCCn1cc(S(=O)(=O)c2ccc(OCC)cc2)c(=O)c2cc(C)ccc21 | inactive: 4.28%
O=C(Cn1ccn(-c2ccc(F)c(F)c2)c(=O)c1=O)NCc1ccccc1 | inactive: -7.22%
Cc1c(-c2cccc(NC(=O)Cc3ccccc3)c2)nc2ncccn12 | inactive: 30.2%
COc1ccc(CNc2nc(-c3ccccc3)nn2C(=O)c2ccccc2OC)cc1 | inactive: -7.27%
COc1cc(Cl)c(S(=O)(=O)N2CCN(c3c(C)cccc3C)CC2)cc1Cl | inactive: -8.87%
Cc1ccc(OCCSc2nc3ccccc3n2CC(=O)N2CCOCC2)cc1C | inactive: 18.4%
Cc1cc(C)c(NC(=O)c2cc(S(=O)(=O)N3CCCC3)cn2C)c(C)c1 | inactive: -6.75%
CN(Cc1ccccc1)C(=O)c1c[nH]c2ccc(S(=O)(=O)Nc3ccccc3F)cc2c1=O | inactive: -6.4%
CCOC(=O)c1cc2c(=O)n3ccccc3nc2n(CC2CCCO2)c1=NC(=O)c1ccc(OCC)cc1 (stereo not given) | inactive: -1.48%
CCOc1cc(C(=O)N2CC(=O)Nc3ccc(F)cc3C2c2ccccc2)cc(OCC)c1OCC (stereo not given) | inactive: 3.72%
COc1cc2nc(NCCc3ccc(Cl)cc3)n3nc(-c4ccccc4)nc3c2cc1OC | inactive: 10.2%
CC(C)OCCCNC(=O)Cn1c(-c2cccs2)cc2cc(F)ccc21 | inactive: 16.3%
COc1ccc(N2CCN(CCCNC(=O)c3sc4ncccc4c3-n3cccc3)CC2)cc1 | inactive: -14.9%
CCN(C(=O)c1nn(C)c2c1CSc1ccccc1-2)c1cccc(C)c1 | inactive: -12%
COc1ccc(NC(=O)Cn2nc(C)c3c(C)n(-c4ccccc4)nc3c2=O)cc1OC | inactive: -7.49%
COc1cc(C(=O)OCc2cc(=O)n3ccsc3n2)cc(OC)c1OC | inactive: 6.08%
CCCCCCCCCCCCCCCC(=O)OC(C)C | inactive: -2.22%
